Patent US20190375821A1 (IBENTRUS, published 2019)

Target: T1, VEGF165 (UniProt P15692-4 27-191)
T1 construct: also called VEGFA
T1 sequence (looked up): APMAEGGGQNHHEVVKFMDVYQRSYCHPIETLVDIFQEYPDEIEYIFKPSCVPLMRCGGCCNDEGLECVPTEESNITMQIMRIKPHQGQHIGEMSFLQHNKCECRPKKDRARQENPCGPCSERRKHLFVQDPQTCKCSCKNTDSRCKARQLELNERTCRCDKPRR
Test: ELISA, plate coated with VEGF, anti-human Fc-HRP detection

B1: VEGFR1-NRP1-Fc fusion protein (VEGF Deep Blocker: VEEP) (Fc fusion)
chain: VSDTGRPFVEMYSEIPEIIHMTEGRELVIPCRVTSPNITVTLKKFPLDTLIPDGKRIIWDSRKGFIISNATYKEIGLLTCEATVNGHLYKTNYLTHRQTNTSAIAKEGFSANYSVLQSSVSEDFKCMEALGMESGEIHSDQITASSQYSTNWSAERSRLNYPENGWTPGEDSYREWIQVDLGLLRFVTAVGTQGAISKETKKKYYVKTYKIDVSSNGEDWITIKEGNKPVLFQGNTNPTDVVVAVFPKPLITRFVRIKPATWETGISMRFEVYGCKIT[… human IgG1 Fc …]
- Kd: 0.05 pM
